In the supplement of paper PMC10126150:
Values marked as one replicate rest on one cluster of the flow cell; about a third of the high ones do not repeat.

Tested on: ATP
Experiment: switch fluorescence ratio, 500 uM ATP over buffer (Cy3 cluster intensity, sum of 5 cycles each) (fold (ratio)); higher = stronger signal-on switching upon ATP binding; sequences stand for … in TCGTCGGCAGCGTCAGATGTGTATAAGAGACAGTTTTTTTTTTTTTTTTTTTTTTTTT…TC
Conditions: aptamer strand: ATP DNA aptamer (quencher-CACCTGGGGGAGTATTGCGGAGGAAGG + anchor), 100 nM annealed; ATP concentration: 500 uM; one replicate
Procedure, shortened: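 The quencher-labelled ATP aptamer, at 100 nM, was annealed to Cy3-labelled switching-strand clusters on a modified Illumina MiSeq flow-cell. The clusters were imaged in selection buffer, then after 15 min with 500 uM ATP at 22 °C, and this buffer/ATP cycle ran five times with NaOH stripping and re-annealing between runs. Per-cluster fluorescence ratios, summed target-cycle over summed buffer-cycle Cy3 intensity, were averaged per switch-domain sequence. Clusters outside 100-1000 RFU were excluded.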
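Further: ATP exposure 15 min at 22 °C before imaging.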

AAAAGTGAGG
switch fluorescence ratio: 1

TAATAGACAA
switch fluorescence ratio: 0.973

TTTACTAATT
switch fluorescence ratio: 0.999

TAAGTTGC
switch fluorescence ratio: 0.992

GCGGTTGTTG
switch fluorescence ratio: 0.964

GAAGTCTACA
switch fluorescence ratio: 1.01

CGGGGTTATG
switch fluorescence ratio: 0.94

GAGATACAGT
switch fluorescence ratio: 1.03

TCATTGCACA
switch fluorescence ratio: 1.37

ACACACGGGG
switch fluorescence ratio: 1.59

GAATTCTGCA
switch fluorescence ratio: 1.04

CCAGGCTAGC
switch fluorescence ratio: 1.03

CGACCTAGTT
switch fluorescence ratio: 1.01

GAGATATATT
switch fluorescence ratio: 0.985

GCTATGGGCC
switch fluorescence ratio: 1.07

GAAGTCACGA
switch fluorescence ratio: 1.08

GACGGCCATG
switch fluorescence ratio: 1.03

TATACGCGTA
switch fluorescence ratio: 0.979

GAGTTCCGAA
switch fluorescence ratio: 1

CTACATTTTG
switch fluorescence ratio: 1.03

ACAAGCTTGA
switch fluorescence ratio: 1.01

TAGAAACTCG
switch fluorescence ratio: 1.04

TAGTGGTGTC
switch fluorescence ratio: 0.977

ACTAAGGTAT
switch fluorescence ratio: 1.05

TTGGATAGAC
switch fluorescence ratio: 1.04

AGAAGCAGAT
switch fluorescence ratio: 0.999

CAGCCGCCTG
switch fluorescence ratio: 1.16

TGTAGTCTGC
switch fluorescence ratio: 0.985

CTGTGTAGAA
switch fluorescence ratio: 0.993

GGGTAAGAGC
switch fluorescence ratio: 1.06

TTGGAGTAGC
switch fluorescence ratio: 0.997

CGGAGTGGAG
switch fluorescence ratio: 1.01

GCGCCAGAAA
switch fluorescence ratio: 0.993

GTCATAAGTC
switch fluorescence ratio: 1.04

GATATGCTGA
switch fluorescence ratio: 1

TGTTGGAGC
switch fluorescence ratio: 1.13

CCCAAAATA
switch fluorescence ratio: 1.04

GTTTAAACAC
switch fluorescence ratio: 0.98

GAGGCGAGGG
switch fluorescence ratio: 0.99

CCAACCGGGC
switch fluorescence ratio: 1.63

ACACTATGAT
switch fluorescence ratio: 1.04

CAGGGCTGTG
switch fluorescence ratio: 0.97

GGCAAAAGGG
switch fluorescence ratio: 0.985

TATACAAGGG
switch fluorescence ratio: 1.02

TCTAGGTGC
switch fluorescence ratio: 3.33

TAGCTCCCCC
switch fluorescence ratio: 1.04

AATGGGTTTC
switch fluorescence ratio: 0.99

CTGCCGTAAT
switch fluorescence ratio: 1.73

CGGTATGTTA
switch fluorescence ratio: 0.998

TGAGTCCAA
switch fluorescence ratio: 1.02

TGATCCGTTG
switch fluorescence ratio: 1.04

AGTTTTGGCT
switch fluorescence ratio: 1.01

CCGAATGTGA
switch fluorescence ratio: 2.27

TGGGTCACCT
switch fluorescence ratio: 1.02

TGTTCACGGC
switch fluorescence ratio: 1.03

GACTTTCAAC
switch fluorescence ratio: 1.02

TAATAATAGT
switch fluorescence ratio: 0.961

TCTAAAGA
switch fluorescence ratio: 0.986

TTGGGGCAAT
switch fluorescence ratio: 1.37

ACCAGTGCGA
switch fluorescence ratio: 1.06

TTTAGATTAA
switch fluorescence ratio: 1

TCTGTATTTA
switch fluorescence ratio: 0.978

AATGCTAAGT
switch fluorescence ratio: 1

CTCGGGGAGC
switch fluorescence ratio: 1

GACAATACCC
switch fluorescence ratio: 1.11

AATAGCTAGC
switch fluorescence ratio: 0.98

TTCTGGCGTG
switch fluorescence ratio: 0.987

GTAGATTAAA
switch fluorescence ratio: 1

CCAACACCAC
switch fluorescence ratio: 1.13

CCGAGCACGG
switch fluorescence ratio: 2.78

TTAGGCTCAT
switch fluorescence ratio: 1.02

GGGCGATTCG
switch fluorescence ratio: 1.06

ACCGTTTACG
switch fluorescence ratio: 1.01

AGGCTTGATC
switch fluorescence ratio: 0.992

TTTTCAGGGC
switch fluorescence ratio: 1.04

CGTGTGTCGT
switch fluorescence ratio: 0.972

CACTGTTGTC
switch fluorescence ratio: 0.998

ACCGAAGTTT
switch fluorescence ratio: 1.25

ATCGGGAGCA
switch fluorescence ratio: 1.57

AACTTCAGAG
switch fluorescence ratio: 0.94

ACCACTCGGG
switch fluorescence ratio: 1

CATTTCGCCT
switch fluorescence ratio: 1.04

GTCAGGTCCA
switch fluorescence ratio: 1.07

AGCACCGC
switch fluorescence ratio: 1.03

GGGGCCCCCG
switch fluorescence ratio: 0.962

GCCGGGAAGA
switch fluorescence ratio: 1.01

CAACGAGACG
switch fluorescence ratio: 1

TAGACATTAT
switch fluorescence ratio: 0.988

AGGACAAGTT
switch fluorescence ratio: 0.995

TCGCTTTTTA
switch fluorescence ratio: 1

GGAGAGAATT
switch fluorescence ratio: 1

GTGTCTGGG
switch fluorescence ratio: 0.985

CCTATGTGGA
switch fluorescence ratio: 1.02

ACTATCGTGG
switch fluorescence ratio: 0.991

CTTTGTCTAG
switch fluorescence ratio: 0.966

ATGGCCCAAC
switch fluorescence ratio: 1.03

TGTCAACAGG
switch fluorescence ratio: 1.08

TAAATACGTT
switch fluorescence ratio: 0.987

TTGACCCCTT
switch fluorescence ratio: 1.13

CCACTTTATT
switch fluorescence ratio: 0.999

TGTGAGGA
switch fluorescence ratio: 1.04
